The campaign covered roughly 310,000 compounds. About 14,000 (4.5%) showed an effect of 50% or more. The effect is printed as a negative number. The list shows a part of the results.
The compounds below were run against human ether-à-go-go-related gene (hERG) potassium channel (human, UniProt Q12809) (assay: primary screen, population patch clamp on CHO cells stably expressing hERG).
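Also: peak tail current of the secondary pulse compared with the same well before compound.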

Sequence of human ether-à-go-go-related gene (hERG) potassium channel (Q12809 whole entry, looked up): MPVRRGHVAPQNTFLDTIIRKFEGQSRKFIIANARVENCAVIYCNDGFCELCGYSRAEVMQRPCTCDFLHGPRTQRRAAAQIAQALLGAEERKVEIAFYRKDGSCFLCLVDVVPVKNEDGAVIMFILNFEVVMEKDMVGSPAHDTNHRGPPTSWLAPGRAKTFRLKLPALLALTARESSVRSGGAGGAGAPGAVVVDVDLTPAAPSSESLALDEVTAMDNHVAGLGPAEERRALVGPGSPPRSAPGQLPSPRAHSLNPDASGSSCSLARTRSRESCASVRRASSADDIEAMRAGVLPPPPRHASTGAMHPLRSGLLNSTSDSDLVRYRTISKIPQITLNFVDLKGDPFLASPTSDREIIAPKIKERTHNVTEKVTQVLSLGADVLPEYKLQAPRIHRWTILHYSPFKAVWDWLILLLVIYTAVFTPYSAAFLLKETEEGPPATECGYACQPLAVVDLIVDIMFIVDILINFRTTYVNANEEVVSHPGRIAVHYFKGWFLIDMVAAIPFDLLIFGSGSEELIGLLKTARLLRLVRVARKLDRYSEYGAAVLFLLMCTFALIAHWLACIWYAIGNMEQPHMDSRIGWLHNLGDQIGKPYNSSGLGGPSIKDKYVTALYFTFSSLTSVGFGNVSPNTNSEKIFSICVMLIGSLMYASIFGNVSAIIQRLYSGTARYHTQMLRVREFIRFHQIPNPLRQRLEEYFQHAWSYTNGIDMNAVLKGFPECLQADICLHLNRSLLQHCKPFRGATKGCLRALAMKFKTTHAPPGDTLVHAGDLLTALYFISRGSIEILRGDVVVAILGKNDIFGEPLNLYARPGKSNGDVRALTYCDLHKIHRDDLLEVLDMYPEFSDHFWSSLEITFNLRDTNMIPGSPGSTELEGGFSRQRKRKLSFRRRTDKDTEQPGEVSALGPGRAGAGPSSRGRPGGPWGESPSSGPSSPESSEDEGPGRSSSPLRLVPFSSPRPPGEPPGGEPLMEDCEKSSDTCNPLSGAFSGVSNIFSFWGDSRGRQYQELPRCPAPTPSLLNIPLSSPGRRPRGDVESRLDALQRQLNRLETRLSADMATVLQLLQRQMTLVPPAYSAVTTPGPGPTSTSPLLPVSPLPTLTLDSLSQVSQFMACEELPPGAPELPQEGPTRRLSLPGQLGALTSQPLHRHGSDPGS

Row | Compound | hERG current change (%, negative = inhibition) at 10uM [%]
1 | O=C(Nc1cc(S(=O)(=O)N2CCOCC2)ccc1N1CCCCC1)c1ccccc1 | -16.9
2 | CC(=O)Nc1cccc(OCc2ccc(S(=O)(=O)Cc3ccccc3)cc2)c1 | 0.707
3 | CCCC1(C(=O)OCC)NC(c2ccco2)C2C(=O)N(C)C(=O)C21 (stereo not shown) | 7.55
4 | COc1ccc2c(c1)CCc1cn3ncc(C#N)c3nc1-2 | 9.34
5 | Cc1noc(NS(=O)(=O)c2ccc(NC(=O)CSc3nc4ccccc4s3)cc2)c1C | -2.99
6 | Cc1ccc(NC(=O)CSc2nnc(-c3ccncc3)o2)cc1 | 18
7 | CN(CC(=O)NC1CCCCCC1)S(=O)(=O)c1ccc(F)cc1 | 8.76
8 | Nc1nc(CN2CCN(c3ccc(F)cc3)CC2)nc(N2CCCc3ccccc32)n1 | -52.9
9 | NC(=O)COc1ccc(C(=O)NCC2(N3CCOCC3)CCCCC2)cc1 | 6.98
10 | O=S(=O)(c1ccc(F)cc1)N1CCN(Cc2cc3c(cc2Br)OCCO3)CC1 | 6.52
11 | CCCCn1c(N)c(N(CCC(C)C)C(=O)c2ccc([N+](=O)[O-])o2)c(=O)[nH]c1=O | 0.692
12 | COC(=O)c1c[nH]n2c(=O)cc(C)nc12 | 8.97
13 | CCc1nn(CCCN2CCN(c3cccc(Cl)c3)CC2)c(=O)n1CCOc1ccccc1.Cl | -65
14 | COc1cc(/C=C(/C#N)c2nc3ccccc3[nH]2)ccc1OCC(=O)Nc1ccccc1C | 7.97
15 | CCCCc1nnc2c(N(C)S(=O)(=O)c3ccc(C)cc3)nc3ccccc3n12 | -30.5
16 | O=C(CCN1C(=O)c2ccccc2C1=O)N1CCN(Cc2ccc(Cl)cc2Cl)CC1 | -53.4
17 | COc1cc2cc(/C=C/C(=O)c3ccco3)c(Cl)nc2cc1OC | 13.3
18 | O=C(COC(=O)Cc1ccc(Cl)cc1Cl)Nc1ccccc1OC(F)F | 5.81
19 | Cn1c(=O)c2c(ncn2CC(=O)N2CCN(c3ccc(F)cc3)CC2)n(C)c1=O | -23.4
20 | O=C(CCN1CCN(c2ccccc2)CC1)N/N=C/c1ccc([N+](=O)[O-])o1 | -73.4
21 | Cc1cccc(NC(=O)CN2CCN(C(=O)C3CCC3)CC2)c1C | -31.4
22 | CCN(CC)CCC(c1ccc2c(c1)OCO2)c1c(OC)cc(OC)c2ccc(=O)oc12 (stereo not shown) | -46.2
23 | CCN1CCN(S(=O)(=O)c2cccs2)CC1 | 4.98
24 | Cc1ccc(S(=O)(=O)CNC(=S)c2cccc(C)c2)cc1 | -16.4
25 | N#C/C(=C\c1ccc(C#N)cc1)C(=O)c1ccccc1 | 10.7
26 | Cl.OCCN1C2=NCCCN2c2ccccc21 | 5.78
27 | CCN(CC)C(=O)c1n[nH]c(=O)c2ccccc12 | 4
28 | COc1ccc(Nc2cc(C(=O)NCCCN3CCN(C)CC3)c3ccccc3n2)cc1OC | 1.49

Row | Compound | hERG current change (%, negative = inhibition) at 10uM [%]
29 | CN(CC(=O)Nc1ccc(F)cc1)C(=O)c1cccc(NS(=O)(=O)c2ccccc2)c1 | -10.8
30 | OCn1ncn(-c2ccccc2)c1=S | 20.2
31 | O=c1[nH]cc(N=Cc2cc(Cl)cc(Cl)c2O)c(=O)[nH]1 | 17.5
32 | Cc1ccc(SCc2nc(-c3ccccn3)no2)cc1 | -22
33 | COc1cc2cc(C(=O)N(C)Cc3ccccc3)[nH]c2cc1OC | 14.8
34 | CCCNC(=O)C(=O)Nc1ccc2c(c1)N(S(=O)(=O)c1cccs1)CCC2 | -33.6
35 | CN(C)CCN(C(=O)c1ccc(S(=O)(=O)N(C)c2ccccc2)cc1)c1nc2cc3c(cc2s1)OCO3.Cl | -2.57
36 | CC1(C)CC(=O)C=C(Nc2ccccc2)C1 | 11.9
37 | Cc1cc(NC(=O)c2ccc(NC(=O)CC(C)C)cc2)no1 | -4.16
38 | CCOC(=O)c1c(-c2ccccc2)c2cc(OC)ccc2n1CCCN(C)C.Cl | -72.4
39 | CCCNS(=O)(=O)c1ccc(OCC(=O)N(C)Cc2ccccc2)cc1 | -24.2
40 | CCCOc1ccc(C(=O)N/N=C/c2ccc(-c3ccc(S(=O)(=O)Nc4ncccn4)cc3)o2)cc1 | -7.38
41 | CC(=O)c1cc2c(cc1NC(=O)c1ccc(C)cc1)OCO2 | 0.974
42 | CCOc1ccc(CCNC(=O)COC(=O)c2ccc(S(=O)(=O)N3CCCC3)cc2)cc1OCC | 25.7
43 | Cc1ccc2nc(SCc3cn4cccnc4n3)[nH]c2c1 | -8.52
44 | Cc1cccc(N2C(=O)CN(Cc3ccccc3)C2=S)c1 | -14.5
45 | C=CCn1c2ccccc2c2nnc(SCC(=O)NC(C(=O)OC)C(C)C)nc21 (stereo not shown) | -15.1
46 | C=CCc1cccc(/C=N/NC(=O)CCC(=O)Nc2ccc(C)cc2)c1O | 10.5
47 | CCC/C=C(\CCC)C(NC(=O)CCc1ccccc1)c1ccc(C(F)(F)F)cc1 (stereo not shown) | 6.67
48 | O=C1CC(SC(=Nc2ccccc2)Nc2ccccc2)C(=O)N1c1ccc(Cl)cc1 (stereo not shown) | 19.4
49 | O=C(COC(=O)C1CCN(S(=O)(=O)c2cccs2)CC1)Nc1ccccc1Br | -49
50 | COc1ccc(-c2nc(CS(=O)CC(=O)NCCCN3CCOCC3)c(C)o2)cc1OC (stereo not shown) | 5.05
51 | COC(=O)CSC1=C(C#N)C(c2ccccc2OC)C(C(=O)OC)C(=O)N1 (stereo not shown) | 15.6
52 | CCOC(=O)C1CCCN(C(=O)c2cc(S(=O)(=O)N3CCCCC3)ccc2C)C1 (stereo not shown) | -10.2
53 | Cc1cc(C)nc(NS(=O)(=O)c2ccc(NC(=O)C(C)C)cc2)n1 | 18.9
54 | CC(=O)Nc1ccc(NC(=O)C(C)OC(=O)C2CC3C=CC2C3)cc1 (stereo not shown) | -2.31
55 | Nc1nc(-c2ccccc2)c(-c2ccc([N+](=O)[O-])cc2)s1 | -8.13
